Broadly, the IC50 is the concentration that gives 50% inhibition.

These results are taken from patent US20250368649A1, “TETRAHYDROPYRIDOPYRIMIDINE PAN-KRAS INHIBITORS” (Mirati Therapeutics, Inc., priority 2022, published 2025).

One test concerns the target KRas G13D (Homo sapiens, UniProt P01116, G13D). The format is binding. Conditions: TR-FRET displacement, read-out: Binding to KRas (IC50 nM) G13D. (In general: TR-FRET usually uses a lanthanide donor and a delayed reading to cut background.)
The target in the next test is KRas Q61H (Homo sapiens, UniProt P01116, Q61H). The experiment in a line: KRas binding assay (TR-FRET displacement), KRas Q61H. To be noted: TR-FRET displacement.
Another test deals with KRas G12A (Homo sapiens, UniProt P01116, G12A). It is filed as binding. To be noted: TR-FRET displacement, read-out: Binding to KRas (IC50 nM) G12A.
For a further test, the target named is KRas G12S (Homo sapiens, UniProt P01116, G12S). The format is binding. Conditions: TR-FRET displacement, read-out: Binding to KRas (IC50 nM) G12S.
The target of the next test is KRas G12C (Homo sapiens, UniProt P01116, G12C). The format is binding. To be noted: TR-FRET displacement, read-out: Binding to KRas (IC50 nM) G12C.
Another test addresses KRas WT (Homo sapiens, UniProt P01116). In words: KRas binding assay (TR-FRET displacement), KRas WT. To be noted: TR-FRET displacement.

Take `CCc1cccc2cccc(N3CCc4c(nc(OCC56CCCN5CCC6)nc4N4CCCc5[nH]cnc5C4)C3)c12` [Example 477, 5-(7-(8-ethylnaphthalen-1-yl)-2-((hexahydro-1H-pyrrolizin-7a-yl)methoxy)-5,6,7,8-tetrahydropyrido[3,4-d]pyrimidin-4-yl)-1,4,5,6,7,8-hexahydroimidazo[4,5-c]azepine]: the IC50 came out at 5620 nM at KRas G13D; 4400 nM at KRas Q61H; 2690 nM on KRas G12A; 2830 nM on KRas G12S; 1500 nM at KRas G12C; 4940 nM at KRas WT.

With `CCc1cccc2cccc(N3CCc4c(nc(OCC56CCCN5CCC6)nc4C4CCCOCC4)C3)c12` (stereo not drawn) [Example 478, 7-(8-ethylnaphthalen-1-yl)-2-((hexahydro-1H-pyrrolizin-7a-yl)methoxy)-4-(oxepan-4-yl)-5,6,7,8-tetrahydropyrido[3,4-d]pyrimidine], the half-maximal inhibitory concentration (IC50) at KRas G13D is 20000 nM; on KRas Q61H, 21300 nM; at KRas G12A, 12700 nM; on KRas G12S, 17600 nM; on KRas G12C, 13100 nM; on KRas WT it was 12600 nM.

In the case of `CCc1cccc2cccc(N3CCc4c(nc(OCC5(CN(C)C)CC5)nc4N4CCOC5COCC5C4)C3)c12` (stereo not drawn) [Example 521, 1-(1-(((7-(8-ethylnaphthalen-1-yl)-4-(hexahydrofuro[3,4-f][1,4]oxazepin-4(5H)-yl)-5,6,7,8-tetrahydropyrido[3,4-d]pyrimidin-2-yl)oxy)methyl)cyclopropyl)-N,N-dimethylmethanamine], the IC50 on KRas G13D was 506 nM; at KRas Q61H, 455 nM; on KRas G12A, 438 nM; on KRas G12S, 690 nM; at KRas G12C, 251 nM; on KRas WT, 432 nM.

Regarding `CCc1cccc2cccc(N3CCc4c(nc(OCC5(CN(C)C)CC5)nc4N4CCCC(c5cn(C)nn5)C4)C3)c12` (stereo not drawn) [Example 522, 1-(1-(((7-(8-ethylnaphthalen-1-yl)-4-(3-(1-methyl-1H-1,2,3-triazol-4-yl)piperidin-1-yl)-5,6,7,8-tetrahydropyrido[3,4-d]pyrimidin-2-yl)oxy)methyl)cyclopropyl)-N,N-dimethylmethanamine], the IC50 at KRas G13D is 1200 nM; on KRas Q61H it was 1020 nM; on KRas G12A, 503 nM; on KRas G12S, 281 nM; on KRas G12C it was 289 nM; at KRas WT, 754 nM.

Take `CCc1cccc2cccc(N3CCc4c(nc(OCC5(CN(C)C)CC5)nc4N4CCCC(c5nc(N)n(C)n5)C4)C3)c12` (stereo not drawn) [Example 523, 3-(1-(2-((1-((dimethylamino)methyl)cyclopropyl)methoxy)-7-(8-ethylnaphthalen-1-yl)-5,6,7,8-tetrahydropyrido[3,4-d]pyrimidin-4-yl)piperidin-3-yl)-1-methyl-1H-1,2,4-triazol-5-amine]: the IC50 on KRas G13D came to 2460 nM; on KRas Q61H, 2590 nM; on KRas G12A it was 441 nM; at KRas G12S, 757 nM; on KRas G12C, 385 nM; on KRas WT it was 1910 nM.

Turning to `CCc1cccc2cccc(N3CCc4c(nc(OCC5(CN(C)C)CC5)nc4N4CCn5ncc(S(N)(=O)=O)c5C4)C3)c12` [Example 524, 5-(2-((1-((dimethylamino)methyl)cyclopropyl)methoxy)-7-(8-ethylnaphthalen-1-yl)-5,6,7,8-tetrahydropyrido[3,4-d]pyrimidin-4-yl)-4,5,6,7-tetrahydropyrazolo[1,5-a]pyrazine-3-sulfonamide], the IC50 at KRas G13D came out at 3790 nM; at KRas Q61H it was 3030 nM; on KRas G12A, 2210 nM; on KRas G12S, 1900 nM; on KRas G12C, 1490 nM; on KRas WT it was 2940 nM.

Regarding `CCc1cccc2cccc(N3CCc4c(nc(OCC5(CN(C)C)CC5)nc4NCc4nc(C5(O)CCOCC5)n[nH]4)C3)c12` [Example 525, 4-(5-(((2-((1-((dimethylamino)methyl)cyclopropyl)methoxy)-7-(8-ethylnaphthalen-1-yl)-5,6,7,8-tetrahydropyrido[3,4-d]pyrimidin-4-yl)amino)methyl)-1H-1,2,4-triazol-3-yl)tetrahydro-2H-pyran-4-ol], the IC50 on KRas G13D is 31600 nM; at KRas Q61H it was 27100 nM; at KRas G12A it was 25100 nM; on KRas G12S, 26900 nM; at KRas G12C, 15000 nM; on KRas WT, 20200 nM.

For `CCc1cccc2cccc(N3CCc4c(nc(OCC5(CN(C)C)CC5)nc4NCC(O)Cn4cccn4)C3)c12` (stereo not drawn) [Example 526, 1-((2-((1-((dimethylamino)methyl)cyclopropyl)methoxy)-7-(8-ethylnaphthalen-1-yl)-5,6,7,8-tetrahydropyrido[3,4-d]pyrimidin-4-yl)amino)-3-(1H-pyrazol-1-yl)propan-2-ol], the IC50 was determined as 87 nM on KRas G13D; 63 nM at KRas Q61H; 175 nM on KRas G12A; 151 nM on KRas G12S; 158 nM on KRas G12C; 111 nM at KRas WT.

As to `CCc1cccc2cccc(N3CCc4c(nc(OCC5(CN(C)C)CC5)nc4NCc4nn(C)c(C)c4S(N)(=O)=O)C3)c12` [Example 527, 3-(((2-((1-((dimethylamino)methyl)cyclopropyl)methoxy)-7-(8-ethylnaphthalen-1-yl)-5,6,7,8-tetrahydropyrido[3,4-d]pyrimidin-4-yl)amino)methyl)-1,5-dimethyl-1H-pyrazole-4-sulfonamide], the IC50 on KRas G13D was found to be 98200 nM; on KRas Q61H, 65100 nM; at KRas G12A, 55400 nM; on KRas G12S it was 53600 nM; at KRas G12C, 36600 nM; at KRas WT, 55000 nM.

As for `CCc1cccc2cccc(N3CCc4c(nc(OCC56CCCN5CCC6)nc4C(=O)NC)C3)c12` [Example 591, 7-(8-ethylnaphthalen-1-yl)-N-methyl-2-((tetrahydro-1H-pyrrolizin-7a(5H)-yl)methoxy)-5,6,7,8-tetrahydropyrido[3,4-d]pyrimidine-4-carboxamide], the IC50 at KRas G13D, at KRas Q61H, at KRas G12A, on KRas G12S, on KRas G12C and at KRas WT was over 100000 nM in each case.

For the compound `CC1(O)CCCN(c2nc(OCC34CCCN3CCC4)nc3c2CCN(c2ccc(F)c4sc(N)nc24)C3)C1` (stereo not drawn) [Example 625, 1-(7-(2-amino-7-fluorobenzo[d]thiazol-4-yl)-2-((tetrahydro-1H-pyrrolizin-7a(5H)-yl)methoxy)-5,6,7,8-tetrahydropyrido[3,4-d]pyrimidin-4-yl)-3-methylpiperidin-3-ol], the IC50 on KRas G13D came out at 11300 nM; on KRas Q61H it was 17800 nM; at KRas G12A, 13000 nM; on KRas G12S, 15500 nM; on KRas G12C, 16500 nM; on KRas WT it was 12900 nM.

For the compound `Nc1nc2c(N3CCc4c(nc(OCC56CCCN5CCC6)nc4N4CCCC5(C4)NC(=O)NC5=O)C3)ccc(F)c2s1` (stereo not drawn) [Example 626, 7-(7-(2-amino-7-fluorobenzo[d]thiazol-4-yl)-2-((tetrahydro-1H-pyrrolizin-7a(5H)-yl)methoxy)-5,6,7,8-tetrahydropyrido[3,4-d]pyrimidin-4-yl)-1,3,7-triazaspiro[4.5]decane-2,4-dione], the half-maximal inhibitory concentration (IC50) at KRas G13D came out at 3960 nM; at KRas Q61H, 5210 nM; at KRas G12A, 5410 nM; on KRas G12S it was 4940 nM; at KRas G12C, 4740 nM; on KRas WT it was 4070 nM.

Consider `Cc1cc2[nH]nnc2c(N2CCc3c(nc(OCC45CCCN4CCC5)nc3N3CCOC[C@@](C)(O)C3)C2)c1C` [Example 638, (S)-4-(7-(5,6-dimethyl-1H-benzo[d][1,2,3]triazol-4-yl)-2-((tetrahydro-1H-pyrrolizin-7a(5H)-yl)methoxy)-5,6,7,8-tetrahydropyrido[3,4-d]pyrimidin-4-yl)-6-methyl-1,4-oxazepan-6-ol], for which the IC50 on KRas G13D is 4070 nM; at KRas Q61H, 5380 nM; at KRas G12A it was 4760 nM; on KRas G12S it was 5890 nM; at KRas G12C it was 4500 nM; at KRas WT it was 5200 nM.

Regarding `Cc1cc2[nH]nnc2c(N2CCc3c(nc(OCC45CCCN4CCC5)nc3N3CCCC4(CNS(=O)(=O)N4)C3)C2)c1C` (stereo not drawn) [Example 639, 7-(7-(5,6-dimethyl-1H-benzo[d][1,2,3]triazol-4-yl)-2-((tetrahydro-1H-pyrrolizin-7a(5H)-yl)methoxy)-5,6,7,8-tetrahydropyrido[3,4-d]pyrimidin-4-yl)-2-thia-1,3,7-triazaspiro[4.5]decane 2,2-dioxide], the 50% inhibitory concentration (IC50) was determined as 566 nM at KRas G13D; 900 nM on KRas Q61H; 619 nM on KRas G12A; 571 nM on KRas G12S; 661 nM at KRas G12C; 719 nM at KRas WT.

`Cc1cc2[nH]nnc2c(N2CCc3c(nc(OCC45CCCN4CCC5)nc3N3C[C@@H]4C[C@H](C3)[C@H](O)C4)C2)c1C` [Example 640, (1R,5R,6R)-3-(7-(5,6-dimethyl-1H-benzo[d][1,2,3]triazol-4-yl)-2-((tetrahydro-11H-pyrrolizin-7a(5H)-yl)methoxy)-5,6,7,8-tetrahydropyrido[3,4-d]pyrimidin-4-yl)-3-azabicyclo[3.2.1]octan-6-ol]: the IC50 stood at 25600 nM at KRas G13D; 28200 nM on KRas Q61H; 21900 nM at KRas G12A; 19400 nM at KRas G12S; 29100 nM on KRas G12C; 25700 nM on KRas WT.
